Experimental data published in ChEMBL document CHEMBL4888484, “Replenishing the malaria drug discovery pipeline: Screening and hit evaluation of the MMV Hit Generation Library 1 (HGL1) against asexual blood stage Plasmodium falciparum ,using a nano luciferase reporter read-out” (2022).
The campaign covered roughly 150,000 compounds. About 540 (0.36%) showed an effect of 50% or more. The list shows a part of the results.

system: Plasmodium falciparum; test: Primary screen in NF54 nanoGlo assay, in single point, at 2uM, 72h; a lower Z score goes with more inhibition; assay type: functional, Erythrocyte; settings: timepoint 72 hour

| SMILES | % Inhibition | Z score |
| --- | --- | --- |
| C[C@H]1CCCN(S(=O)(=O)NCCOc2ccc(F)cc2)C1 | -10% | 1.29 |
| Cc1ccn2c(F)c(C(=O)N3CCC([C@H](C)N4CCN(C)CC4)CC3)nc2c1 | -3% | 0.59 |
| NC(=O)[C@@H]1CCCCN1C(=O)COC1CCCC1 | -8% | 0.92 |
| CC1CC(C(=O)N[C@@H](C)C(=O)N2Cc3ccccc3C2)CCO1 (some centres not stated) | 0% | 0.03 |
| COc1cc2ccccc2cc1C(=O)Nc1ccc2c(c1)OCCO2 | 8% | -1.31 |
| CCC[C@H](C)N1CC2(CCN(C(=O)Cc3cnc4ccccn34)CC2)OC1=O | -10% | 1.14 |
| CCOC1CCN(C(=O)c2cccc(Cn3ccnc3)c2)CC1 | -18% | 2.22 |
| Cn1cc(C(=O)N2CCCC2)c(-c2ccco2)n1 | -8% | 1.07 |
| Cc1nccn1CCCN(C)C(=O)Nc1ccncc1F | -5% | 0.57 |
| Cc1noc(CNC(=O)C(=O)Nc2ccc(F)cc2Cl)n1 | -1% | 0.1 |
| Cc1cnn(C2CN(Cc3cnc(C)s3)C2)c1 | -8% | 0.99 |
| C#CCNC(=O)C[C@@H]1c2nc(NC(=O)C(C)(C)C)sc2C[C@@H]2[C@](C)(CO)[C@H](O)CC[C@]21C | 9% | -1.02 |
| C[C@H](CNC(=O)OC(C)(C)C)NC(=O)c1ccc(Br)c(F)c1 | 11% | -1.13 |
| COCCN1C(=O)c2c(NC(C)=O)c3cc(F)ccc3n2C[C@@]1(C)C(=O)NC1CCCCCC1 | -1% | 0.1 |
| O=C(NCCOc1ccccc1)c1ccc(OCc2ccccc2)cc1 | -2% | 0.25 |
| O=C(Nc1nncs1)c1occc1-c1ccccc1 | -6% | 0.51 |
| Cn1ncc2c(N3CCCC3)nc(N3CCC(N4CCCCC4)CC3)nc21 | 6% | -1.18 |
| CN(C)[C@@H](CNc1cc(C(F)(F)F)ccn1)c1cccnc1 | -5% | 0.44 |
| CCOc1ccccc1CN1CCc2cc(OC)c(OC)cc2[C@@H]1c1cccc(Cl)c1 | -6% | 1.18 |
| CCO[C@@H](C)c1nc(CN(C)C(=O)C(C)(C)C)cs1 | -6% | 0.8 |
| Cc1noc(C)c1CN(C)S(=O)(=O)Cc1noc2ccccc12 | -12% | 1.93 |
| Cc1cc(C(=O)N2CCCCCCNC(=O)[C@@H]3C[C@@H](c4nc(Cc5ccccc5)no4)C[C@@H]32)n(C)n1 | 5% | -0.57 |

| SMILES | % Inhibition | Z score |
| --- | --- | --- |
| C[C@H](NC(=O)c1ccco1)C(=O)Nc1cc(S(=O)(=O)N2CCCC2)ccc1OCC(F)(F)F | 1% | -0.1 |
| Cc1ccc(CN[C@H]2CCS(=O)(=O)C2)o1 | -4% | 0.54 |
| CN(Cc1ccncn1)C(=O)CCc1nc2ccccc2s1 | -8% | 1.58 |
| CC(C)c1ncc(OCc2ccccc2)c(C(=O)O)n1 | -1% | 0.14 |
| Cc1cn2c(CNC[C@H](C)CN3CCCCC3)c(C)nc2s1 | -13% | 1.29 |
| CCN(CCN1CCCC1)C(=O)[C@H](OC)c1ccccc1 | 0% | -0.02 |
| Cc1cc(CNC(=O)C#CC2CCN(C(=O)OC(C)(C)C)CC2)no1 | -5% | 0.93 |
| O=C(CS(=O)(=O)CC1CCCCC1)N1CCC(c2ccccc2)=N1 | -3% | 0.51 |
| O=C(Cc1ccccc1F)N[C@H]1CCN(c2nccn3cnnc23)C1 | -18% | 2.36 |
| Cc1ncc(S(=O)(=O)NC(=O)C[C@@]2(C)CC2(Cl)Cl)s1 | 2% | -0.3 |
| COc1ccc(Cc2nc(Cn3cnc4ccccc4c3=O)no2)cc1 | -7% | 0.85 |
| Cn1c(COc2ccccc2-c2nccs2)nnc1C1CC1 | -12% | 0.98 |
| Cc1nc(NC(=O)Nc2cc([C@H]3CCCOC3)[nH]n2)sc1C | -5% | 0.43 |
| Cn1cc(S(=O)(=O)NCc2ccccc2)c2cccnc21 | 5% | -0.93 |
| CN(C(=O)c1ccc(N2CCOCC2)nn1)c1ccccc1 | -4% | 0.67 |
| O=C1CC[C@@H]2CN(C(=O)c3cncnc3C3CC3)c3cccc1c32 | -7% | 1.26 |
| CC(C)c1cc(CNC(=O)N2CCCC[C@H]2c2cccc(F)c2)no1 | 23% | -4.62 |
| Cc1nc(NC(=O)NC2CCC(C)(O)CC2)nn1C (configuration not stated) | -7% | 0.92 |
| COC1CN(c2ncnc3ccccc23)C1 | -8% | 0.87 |
| Cc1ccc(C#N)c(N2CCC3(CCC(=O)N(CCc4ccncc4)C3)CC2)n1 | -13% | 1.71 |
| Cc1nc2c(s1)CCC[C@@H]2NC(=O)c1ocnc1C | -16% | 2.46 |
| Cc1cccc(-c2nc3c4ccccc4nc(NCc4ccc(F)cc4)n3n2)c1 | -9% | 1.66 |

| SMILES | % Inhibition | Z score |
| --- | --- | --- |
| C[C@@H]1CN(C[C@@H]2CN(Cc3ccc(Cl)c(F)c3)C[C@@H]2CO)C[C@H](C)O1 | -5% | 0.79 |
| CCN1CN(C(=O)N[C@@H](C)CCC(C)C)CC1=O | -3% | 0.26 |
| Nc1ccc(Oc2ccc(-c3cn[nH]c3)cc2)nc1 | -5% | 0.49 |
| N#Cc1c(-c2cccnc2)cc(-c2ccccc2OCC(N)=O)nc1N | -4% | 0.76 |
| C=CCC(CO)Nc1ccnc(NC(CO)CC=C)n1 (configuration not stated) | -1% | 0.22 |
| COc1ccc(Cl)cc1C(=O)N1CCn2nnc(CO)c2C1 | -2% | 0.3 |
| Cc1nnc(Oc2cccc(Cl)c2)c2ccccc12 | -11% | 1.01 |
| O=C(COc1ccc(Cl)cc1Br)N(C1CCCC1)[C@H]1CCS(=O)(=O)C1 | -4% | 0.94 |
| CCN(CC)C(=O)Nc1cc(OC)c(OC)cc1Br | -8% | 1.19 |
| CCn1cnnc1CN(C)Cc1[nH]nc(C)c1Cl | -7% | 1.39 |
| Cc1csc([C@H](C)NS(=O)(=O)CCc2scnc2C)n1 | 6% | -0.58 |
| CCn1cc(C(=O)NCc2cccnc2Oc2ccc(F)cc2F)cn1 | -8% | 1.58 |
| O=C(Nc1nc2c(s1)CCCCCC2)[C@H]1CCS(=O)(=O)C1 | -7% | 0.83 |
| CCCN(CC(=O)O)C(=O)c1cc(F)c(C)cc1F | -8% | 0.86 |
| O=c1c2ccccc2ncn1C[C@H]1CC[C@H](C(=O)Nc2ccc(Cl)cc2Cl)CC1 | -9% | 1.32 |
| COc1ccc(Cn2cc([C@H](CC(N)=O)c3ccc(OCc4ccccc4)c(OC)c3)c3ccccc32)cc1 | -8% | 1.21 |
| O=C(CN1CCCC1)N(c1ccccc1)C1CCCCC1 | 21% | -2.68 |
| CN(C)CCN(Cc1ccco1)C(=O)N[C@H]1CCc2c(F)cccc21 | 5% | -0.45 |
| Cc1ccc(-c2cn[nH]c2[C@H]2CCCN(C(=O)c3nccn3C)C2)cc1 | -14% | 1.8 |
| CNCc1cc(Cl)c(O)c(Cl)c1 | -1% | 0.14 |
| Nc1nonc1-n1nnc(C(=O)c2ccccc2)c1-c1ccccc1 | -8% | 1.55 |
| CC(C)Nc1ncc(-c2nc(C3CCOCC3)n[nH]2)cn1 | 4% | -0.69 |

| SMILES | % Inhibition | Z score |
| --- | --- | --- |
| C[C@H](NC(=O)c1ccc(O)nc1)c1ccc(OCc2cccnc2)cc1 | 2% | -0.34 |
| CC(=O)NCCC(=O)NC[C@H]1CC[C@H](CO)CC1 | -5% | 0.6 |
| N#CC1(c2nc([C@H]3CC(=O)N(CC4CCC4)C3)no2)CCC1 | 17% | -2.2 |
| CCNC(=O)N1CCN(c2nc3ccccc3c3nnc(-c4ccccc4C)n23)CC1 | -6% | 0.93 |
| Cc1cc(C)cc(C2CCN(C(=O)C3CCOC3)C2)c1 (configuration not stated) | -13% | 1.98 |
| CCOC(Cn1cc(C(=O)Nc2nc(C)cs2)nn1)OCC | 6% | -0.76 |
| C[C@H]1CCn2c(nc3cc(C(=O)NCc4ccco4)ccc32)C1 | -9% | 1.22 |
| COC(=O)[C@H](C)NC(=O)c1cc(C)c(C)cc1Cl | -12% | 1.36 |
| COCC(=O)N(CCN1CCOCC1)Cc1csc(COc2cccc(C)c2C)n1 | 10% | -1.26 |
| CN(C)c1ccc([C@@H](CNC(=O)C2CCCC2)c2c[nH]c3ccccc23)cc1 | 1% | -0.11 |
| Cc1cnn(C)c1S(=O)(=O)N1CCC=C(c2cnn(C)c2)C1 | 11% | -2.09 |
| CCN(C(=O)Nc1cccn(Cc2ccc(F)cc2)c1=O)[C@H]1CCN(Cc2ccccc2)C1 | 1% | -0.11 |
| CCc1ncc(-c2cc(C(=O)N(CC)C(C)C)c3c(C)cc(C)cc3n2)cn1 | 6% | -0.82 |
| CCCC(=O)Nc1ccc(CNC(=O)c2cccc[n+]2[O-])cc1 | -11% | 1.43 |
| Cc1cc(C)c(CNC(=O)N(C)Cc2c(C)noc2C)c(=O)[nH]1 | -12% | 1.55 |
| CCNc1ccc(Br)cc1C(=O)O | -11% | 1.65 |
| Cc1csc(-c2cc(NC(=O)c3ccc(C(C)(C)C)cc3)c(C)s2)n1 | 7% | -0.78 |
| CCOC(=O)c1c(N)c2cccnc2n1C | -7% | 1.43 |
| Cc1ccc(N2CN(CC(=O)NC3CCCC3)S(=O)(=O)c3cccnc32)cc1 | -12% | 1.29 |
| COc1ccc(OC)c(S(=O)(=O)N[C@H]2CO[C@H]3[C@@H]2OC[C@@H]3Nc2nccc(-c3ccco3)n2)c1 | 4% | -0.45 |
